Results: the supplement of paper PMC12217912
This is one part of the list. The full chains were built here from the parent and the listed change. Inactive controls read about 0.05.

B1: TEV protease; numbered along this chain (parent)
chain: MGESLFKGPRDYNPISSSICHLTNESDGHTTSLYGIGFGPFIITNKHLFRRNNGTLVVQSLHGVFKVKDTTTLQQHLVDGRDMIIIRMPKDFPPFPQKLKFREPQREERICLVTTNFQTKSMSSMVSDTSCTFPSGDGIFWKHWIQTKDGQCGSPLVSTRDGFIVGIHSASNFTNTNNYFTSVPKNFMELLTNQEAQQWVSGWRLNADSVLWGGHKVFMVKPEEPFQPVKEATQL

Variants of: B1
Assay: raw area under fraction-flipped curve 0-4 h after induction (AUC4h, not background-subtracted), DNA-recorder readout of cleavage of the substrate (dimensionless); higher = more cleavage of the substrate by the protease variant
Conditions: temperature: 34 °C; time window: 0-4 h after rhamnose induction
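Note: Bxb1 expression induced with 0.2% (w/v) L-rhamnose at OD600 near 0.5, cultures sampled hourly, flipped fraction per protease–substrate barcode pair counted by paired-end Illumina sequencing.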

Variant	area with substrate ENLYFQC	area with substrate ENLYFQG	area with substrate ENLYFQI	area with substrate ENLYFQK	area with substrate ENLYFQN	area with substrate ENLYFQR	area with substrate ENLYFQS	area with substrate ENLYFQT	area with substrate ENLYFQW	area with substrate ENLYFQH	area with substrate ENLYFQQ	area with substrate ENLYFQV	area with substrate ENLYFQL	area with substrate ENLYFQM	area with substrate ENLYFQE	area with substrate ENLYFQP	area with substrate ENLYFQY	area with substrate ENLYFQF	area with substrate ENLYFQD
MGESLFKGPRDYNPISSSICHLTNESDGHTTSLYGIGFGPFIITNKHLFRRNNGTLVVQSLNGVFKVKDTTTLQQHLVDGRDMIIIRMPKDFPPFPQKLKFREPQREERICLVTTNFQTKSMSSMVSDTSCTFPSGDGIFWKHWIQTKDGQCGSPLVSTRDGFIVGIHSASNFTNTNNYFTSVPKNFMELLTNQEAQQWVSGWRLNADSVLWGGHKVFMVKPEEPFQPVKEATQL [H62N]	0.109	0.115	0.0427	0.0644	0.0776	0.0536	0.104	0.0753	0.0583	–	–	–	–	–	–	–	–	–	–
MGESLFKGPRDYNPISSSICHLTNESDGHTTSLYGIGFGPFIITNKHLFRRNNGTLVVQSLHGVFKVKDTTTLQQHLVDGRDMIIIRMPKDFPPFPQKLKFRYPQREERICLVTTNFQTKSMSSMVSDTSCTFPSGDGIFWKHWIQTKDGQCGSPLVSTRDGFIVGIHSASNFTNTNNYFTSVPKNFMELLTNQEAQQWVSGWRLNADSVLWGGHKVFMVKPEEPFQPVKEATQL [E103Y]	0.0898	0.0958	–	–	–	–	0.0931	0.0654	–	0.0743	0.0521	0.0545	–	–	–	–	–	–	–
MGESLFKGPRDYNPISSSICHLTNESDGHTTSLYGIGFGPFIITNKHLFRRNNGTLVVQSLHGVFKVKDTTTLQQHLVDGRDMIIIRMPKDFPPFPQKLKFREPQREERICLVTTNFQTKSMSSMVSDTSCTFPSGDGIFWKHWIQTKDGQCGSPLVSTRDGFIVGIHSASNFTNTNNYFTSVPKNFMELLTNQEAQQWVSGWRLNADSVLWGGHKVFMVKPFEPFQPVKEATQL [E223F]	0.0988	–	0.0611	0.0675	0.0691	0.0569	0.0838	0.044	–	–	–	0.0657	0.0607	0.063	–	–	–	–	–
MGESLFKGPRDYNPISSSICHLTNESDGHTTSLYGIGFGPFIITNKHLFRRNNGTLVVQSLHGVFKVKDTTTLQQHLVDGRDMIIIRMPKDFPPFPQKLKFREPQREERICLVTTNFQTKSMSSMVSDTSCTFPSGDGIFWKHWIQTKDGQCGSPLVSTRDGFIVGIHSASNFTNTNNYFTSVPKNFMELLTNQEAQQWVSGWRLNADSVLWGGHKVFMVKPEEPYQPVKEATQL [F226Y]	0.129	0.0813	0.0558	0.0663	0.0776	0.0679	0.113	0.0641	0.0658	0.0885	0.106	–	0.0578	–	0.0853	0.0575	0.0623	–	–
MGESLFKGPRDYNPISSSICHLTNESDGHTTSLYGIGFGPFIITNKHLFRRNNGTLVVQSLHMVFKVKDTTTLQQHLVDGRDMIIIRMPKDFPPFPQKLKFREPQREERICLVTTNFQTKSMSSMVSDTSCTFPSGDGIFWKHWIQTKDGQCGSPLVSTRDGFIVGIHSASNFTNTNNYFTSVPKNFMELLTNQEAQQWVSGWRLNADSVLWGGHKVFMVKPEEPFQPVKEATQL [G63M]	0.0778	–	0.0748	–	–	0.0654	0.0885	0.0649	0.0352	0.0827	–	–	0.0424	0.0662	–	0.0403	0.076	–	–
MGESLFKGARDYNPISSSICHLTNESDGHTTSLYGIGFGPFIITNKHLFRRNNGTLVVQSLHGVFKVKDTTTLQQHLVDGRDMIIIRMPKDFPPFPQKLKFREPQREERICLVTTNFQTKSMSSMVSDTSCTFPSGDGIFWKHWIQTKDGQCGSPLVSTRDGFIVGIHSASNFTNTNNYFTSVPKNFMELLTNQEAQQWVSGWRLNADSVLWGGHKVFMVKPEEPFQPVKEATQL [P9A]	0.111	0.0965	0.0762	0.0661	–	0.0611	0.0993	–	0.0708	–	–	–	0.0828	0.0957	–	0.0662	0.0609	0.0526	–
MGESLFKGPRDYNPISSSICHLTNESDGHTTSLYGIGFGPFIITNKHLFRRNNGTLVVQSLHGVFKVKDTTTLQQHTVDGRDMIIIRMPKDFPPFPQKLKFREPQREERICLVTTNFQTKSMSSMVSDTSCTFPSGDGIFWKHWIQTKDGQCGSPLVSTRDGFIVGIHSASNFTNTNNYFTSVPKNFMELLTNQEAQQWVSGWRLNADSVLWGGHKVFMVKPEEPFQPVKEATQL [L77T]	0.0764	0.0763	–	–	0.0606	0.067	0.0684	0.0619	0.0592	0.072	0.0656	0.0597	0.056	0.0591	–	–	–	–	–
MGESLFKGPRDYNPISSSICHLTNESDGHTTSLYGIGFGPFIITNKHLFRRNNGTLVVQSLHGVFKVKDTTTLQQHLVDGRDMIKIRMPKDFPPFPQKLKFREPQREERICLVTTNFQTKSMSSMVSDTSCTFPSGDGIFWKHWIQTKDGQCGSPLVSTRDGFIVGIHSASNFTNTNNYFTSVPKNFMELLTNQEAQQWVSGWRLNADSVLWGGHKVFMVKPEEPFQPVKEATQL [I85K]	0.0641	–	–	–	–	0.0353	0.0571	0.0622	0.0511	0.0312	0.0484	0.0366	0.0527	0.0703	0.06	0.0473	–	0.0467	–
MGESLFKGPRDYNPISSSICHLTNESDGHTTSLYGIGFGPFIITNKHLFRRNNGTLVVQSLHGVFKVKDTTTLQQHLVDGRDMIIIRMPKDFPPFPQKLKFREPQREERICLVTTNFQTKSMSSMVSDTSCTFPSGDGQFWKHWIQTKDGQCGSPLVSTRDGFIVGIHSASNFTNTNNYFTSVPKNFMELLTNQEAQQWVSGWRLNADSVLWGGHKVFMVKPEEPFQPVKEATQL [I139Q]	0.113	0.111	0.051	–	0.0803	–	0.0991	0.0641	0.0663	0.0782	–	–	–	0.0852	–	–	0.0864	–	0.0818
MGESLFKGPRDYNPISSSICHLTNESDGHTTSLYGIGFGPFIITNKHHFRRNNGTLVVQSLHGVFKVKDTTTLQQHLVDGRDMIIIRMPKDFPPFPQKLKFREPQREERICLVTTNFQTKSMSSMVSDTSCTFPSGDGIFWKHWIQTKDGQCGSPLVSTRDGFIVGIHSASNFTNTNNYFTSVPKNFMELLTNQEAQQWVSGWRLNADSVLWGGHKVFMVKPEEPFQPVKEATQL [L48H]	0.0526	0.0596	0.0561	0.0648	0.0465	0.0606	0.0615	–	0.0547	0.0564	0.0483	0.0696	0.06	0.0573	–	–	0.0594	0.0264	0.0656
